Here are results for 57 molecules from PubChem BioAssay AID463173 (ICCB-Longwood Screening Facility, Harvard Medical School, 2010).

The campaign covered roughly 52,000 compounds. About 1,700 (3.3%) were called active. No stated cut-off is given here; in the data, active means survival mostly below about 52% (no sharp cut-off); inactive means mostly above about 56%. This is one part of the list.

The test system of the assay is Wild type. As to the kind of experiment: growth inhibition of S. aureus wild type versus tarO mutant, primary screen, teichoic acid synthesis inhibitors, RN4220, OD600 (AID 463173). The conditions noted are these: S. aureus RN4220 wild type/DeltatarO growth, OD600, 18 h, stronger effect = lower value, screened at 18.75 µg/mL (by protocol).
For `CCC(=O)N1CCc2cc(Br)cc(S(=O)(=O)N3CCCC(C(=O)Nc4ccc(OC)cc4OC)C3)c21` (configuration not stated), the survival was inactive: 81%.

On to `CCc1ccc(S(=O)(=O)c2nnn3c2nc(NC(C)C)c2cc(Cl)ccc23)cc1`, for which the survival was inactive: 83%.

On to `COc1ccccc1CNC(=O)c1ccc(CS(=O)c2ccccc2Cl)o1` (configuration not stated), for which the survival is inactive: 83%.

Regarding `CC12CN3CC(c4ccccc4)(CN(C1)C3c1ccc(Cl)cc1)C2=O` (configuration not stated), the survival is inactive: 90%.

Turning to `CC(=O)c1cc(-c2ccccc2)n(CCC(=O)NC2CCCCC2)c1C`, the survival was inactive: 93%.

Consider `COc1ccc(N2CCN(c3oc(/C=C/c4ccccc4OC)nc3C#N)CC2)cc1`, for which the survival is inactive: 86%.

Turning to `COc1ccc(NC(=O)C(=O)NCc2ccco2)c(OC)c1`, the survival is inactive: 145%.

On to `CC(C)Oc1ccc(CNC(=O)c2cccc(NC(=O)c3nsc4ccccc34)c2)cc1`, for which the survival is inactive: 77%.

`COc1ccc(OC)c(CNC(=O)C2CCN(S(=O)(=O)c3ccc4[nH]c(=O)oc4c3)CC2)c1`: the survival was inactive: 63%.

Take `Nc1cccc(CN2CCCC2)c1`: the survival is inactive: 116%.

For the molecule `CCOc1ccc(CC(=O)Nc2c(C(=O)c3ccc(F)cc3)oc3ccc(Cl)cc23)cc1OCC`, the survival was inactive: 60%.

As for `Cc1cc(C)cc(NC(=O)N2CCC(N3CCN(Cc4ccccc4)C(=O)C3=O)CC2)c1`, the survival is inactive: 68%.

For `O=C(Nc1ccc(C(=O)OCc2cc(=O)n3ccsc3n2)cc1)c1cccc(F)c1`, the survival is inactive: 73%.

For `COc1ccc(Nc2c3c(nc4ccc(NC(=O)c5cc(Cl)ccc5OC)cc24)CCCC3)cc1OC`, the survival is inactive: 90%.

For the molecule `CN1CCN(S(=O)(=O)c2cccc(S(=O)(=O)c3ccc(Cl)c(Cl)c3)c2)CC1`, the survival is inactive: 102%.

For the molecule `CCNC(=S)N1CCC(n2cnc3ccccc32)CC1`, the survival was inactive: 98%.

Turning to `Cn1c(C(=O)N2CCC(C(=O)N3CCN(c4ccccc4)CC3)CC2)cc2sccc21`, the survival was inactive: 80%.

Consider `Cc1ccc(CNC(=O)c2c[nH]n3c(=O)c(Cc4ccc(F)cc4Cl)c(C)nc23)cc1`, for which the survival was active: -15%.

For the molecule `Cc1nnc(N2CCN(c3cccc(C(F)(F)F)c3)CC2)c2c1nnn2Cc1ccccc1`, the survival was inactive: 88%.

On to `COc1ccc(N2Cc3cccc(C(=O)Nc4cccc(F)c4)c3C2=O)cc1`, for which the survival is inactive: 88%.

As to `Cc1ccc(-c2cc(NC(=O)C(C)Oc3ccccc3F)on2)cc1` (configuration not stated), the survival is inactive: 66%.

For `CN(C)c1ccc(C(=O)Nc2ccc(-c3nc4ccccc4o3)cc2)cc1`, the survival was inactive: 103%.

Turning to `Cc1cc(NC(=O)C2CCCN(S(=O)(=O)c3cn(C)cn3)C2)ccc1Br` (configuration not stated), the survival was inactive: 81%.

For `Cc1noc2ncnc(NCc3ccc(Cl)cc3)c12`, the survival was inactive: 135%.

`CC(C)NC(=O)CSc1nc2ccccc2n1CC(=O)NC(C)C`: the survival is inactive: 112%.

For `CCOC(=O)c1ccc(-c2ccc(/C=C(\C#N)C(=O)NCc3cccs3)o2)cc1`, the survival is inactive: 110%.

In the case of `CCOC(=O)c1ccc(N2C(=O)c3n[nH]c(-c4cccs4)c3C2c2ccc(OC)cc2OC)cc1` (configuration not stated), the survival was inactive: 92%.

Regarding `O=C(Nc1nc2c(s1)CCCC2)c1ccccc1F`, the survival was inactive: 73%.

On to `CC(C)c1ccc(C2=NC(c3ccncc3)=Nc3ccc(F)cc3N2)cc1`, for which the survival was inactive: 84%.

Take `Cc1ccc(NC(=O)c2ccc(N(Cc3ccccc3)S(C)(=O)=O)cc2)cc1`: the survival is inactive: 94%.

For the molecule `COc1ccc(OC)c(CCNC(=O)c2nn(C)c3c2CSc2ccccc2-3)c1`, the survival is inactive: 82%.

Consider `CNC(=O)c1ccc2nc(Cc3ccccc3)oc2c1`, for which the survival is inactive: 32%.

`CCOC(=O)c1c(S(=O)(=O)N2CCN(c3cccc(C(F)(F)F)c3)CC2)c(C)n(C)c1C`: the survival was inactive: 135%.

For the molecule `CCCn1cc(S(=O)(=O)c2ccc(CC)cc2)c(=O)c2cc(F)c(N3CCN(C)CC3)cc21`, the survival was inactive: 85%.

Turning to `CCOc1ccc(Cn2c(CNS(=O)(=O)c3ccc(CC)cc3)nc3cccnc32)cc1`, the survival was inactive: 69%.

For `Cc1ccc(C(=O)c2oc3ccccc3c2NC(=O)C(C)Oc2ccccc2Cl)cc1` (configuration not stated), the survival was inactive: 46%.

As for `COc1ccccc1C(=O)N=C1NC(=O)CC2C(=O)NCCN12` (configuration not stated), the survival was inactive: 96%.

Consider `CCOC(=O)N1CCC(NC(=O)c2ccc3c(c2)N(Cc2ccc(Cl)cc2)C(=O)c2ccccc2S3(=O)=O)CC1`, for which the survival is inactive: 100%.

In the case of `CC(C)c1ccc2oc(-c3ccc(Cl)c(NC(=O)Cc4ccccc4)c3)nc2c1`, the survival is inactive: 120%.

With `CCC1CCc2c(sc(NC(=O)C3c4ccccc4Oc4ccccc43)c2C(=O)OC)C1` (configuration not stated), the survival was inactive: 80%.

Take `CC1CCN(C(=O)c2ccc3c(c2)nnn3C)CC1`: the survival was inactive: 100%.

For the molecule `COc1ccc(NC(=O)c2c(NCc3cccs3)sc3c2CCCCC3)c(OC)c1`, the survival was inactive: 97%.

For the molecule `Cc1cc(Br)ccc1NC(=O)CCNS(=O)(=O)c1cccc2nonc12`, the survival was inactive: 63%.

In the case of `O=C(c1cnn2c(C(F)F)cc(-c3ccccc3)nc12)N1CCCC1`, the survival was inactive: 110%.

For `O=C(Nc1ccc(Br)cc1F)c1cc2nc(-c3ccco3)cc(C(F)(F)Cl)n2n1`, the survival was inactive: 57%.

`O=C(Cn1cc(SCc2ccccc2F)c2ccccc21)N1CCCC1`: the survival was inactive: 82%.

On to `O=S(=O)(c1ccc(OC(F)(F)F)cc1)N1CCC(c2nc3ccccc3s2)CC1`, for which the survival is inactive: 85%.

Regarding `COc1ccc2c(c1)CC(C(=O)Nc1ccc(OC)cc1OC)CO2` (configuration not stated), the survival was inactive: 113%.

With `CCOc1ccc(OCC)c(Nc2nc3ccc(C(=O)c4ccccc4)cc3n3cnnc23)c1`, the survival was inactive: 90%.

With `COC(=O)C1CC(=O)N(c2ccccc2)C1` (configuration not stated), the survival is inactive: 98%.

Consider `CCc1ccc(NC(=O)C2CCN(S(=O)(=O)c3c(C)noc3C)CC2)cc1`, for which the survival is inactive: 84%.

As for `CCC(=O)Nc1ccccc1-c1nc2ccccc2n(CC(=O)Nc2ccc(C)c(C)c2)c1=O`, the survival is inactive: 83%.

For the molecule `COc1ccc(C2=NN(CC(=O)NCCc3ccccc3)C(=O)CC2)cc1`, the survival was inactive: 140%.

`Cn1c(=O)c2cc(C(=O)Nc3cccc(C#N)c3)sc2c2ccccc21`: the survival was inactive: 123%.

Take `COC(=O)c1ccc(NC(=O)NC(C)c2c(-n3cccc3)sc(C)c2C)cc1` (configuration not stated): the survival was inactive: 89%.

With `O=C(NCc1ccccc1)c1ccc2c(c1)N(Cc1ccc(F)cc1)CCS2`, the survival is inactive: 103%.

`COc1ccc(CCNC(=O)CSCc2nc(-c3cccc(C)c3)oc2C)cc1OC`: the survival was inactive: 74%.
